# According to PubChem BioAssay AID485360 (National Center for Advancing Translational Sciences (NCATS), 2010):
# In all, about 230,000 compounds went through this assay and about 1,500 (0.65%) were called active. This list was built around the results that the source calls inconclusive (neither active nor inactive); the mix of calls is not that of the screen. Calls follow the shape of the dose curve; as a rule, active = well fitted inhibition curve with a large enough effect; inconclusive = small, poorly fitted or top-dose-only effect; inactive = no such curve, though single readings can be large or run the other way. Where the call is inconclusive, the potency comes from a doubtful curve fit.
# Molecular target: Lethal(3)malignant brain tumor-like protein 1 (Homo sapiens) (UniProt Q9Y468)
# Assay: qHTS Assay for the Inhibitors of L3MBTL1; also: nearly all actives have a fitted effect of over 60% in size
# Conditions: AlphaScreen L3MBTL1–H3K9me1 peptide binding; activity, negative = inhibition: at 57.1 µM (top of the series)
# In short: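 AlphaScreen assay: L3MBTL1 (50 nM final) was preincubated 30 min at room temperature with biotinylated H3(1-15)K9me1 peptide (75 nM final), then 30 min with library compounds; streptavidin donor and nickel chelate acceptor beads (10 ug/mL final) added, 30 min dark.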
# % is scaled to controls: 0 for no effect and ±100 for the full control effect; potency is read from the fitted curve at half-maximal effect; tags tell the direction and shape of the fitted curve.
# UniProt Q9Y468, sequence (Q9Y468 whole entry, looked up): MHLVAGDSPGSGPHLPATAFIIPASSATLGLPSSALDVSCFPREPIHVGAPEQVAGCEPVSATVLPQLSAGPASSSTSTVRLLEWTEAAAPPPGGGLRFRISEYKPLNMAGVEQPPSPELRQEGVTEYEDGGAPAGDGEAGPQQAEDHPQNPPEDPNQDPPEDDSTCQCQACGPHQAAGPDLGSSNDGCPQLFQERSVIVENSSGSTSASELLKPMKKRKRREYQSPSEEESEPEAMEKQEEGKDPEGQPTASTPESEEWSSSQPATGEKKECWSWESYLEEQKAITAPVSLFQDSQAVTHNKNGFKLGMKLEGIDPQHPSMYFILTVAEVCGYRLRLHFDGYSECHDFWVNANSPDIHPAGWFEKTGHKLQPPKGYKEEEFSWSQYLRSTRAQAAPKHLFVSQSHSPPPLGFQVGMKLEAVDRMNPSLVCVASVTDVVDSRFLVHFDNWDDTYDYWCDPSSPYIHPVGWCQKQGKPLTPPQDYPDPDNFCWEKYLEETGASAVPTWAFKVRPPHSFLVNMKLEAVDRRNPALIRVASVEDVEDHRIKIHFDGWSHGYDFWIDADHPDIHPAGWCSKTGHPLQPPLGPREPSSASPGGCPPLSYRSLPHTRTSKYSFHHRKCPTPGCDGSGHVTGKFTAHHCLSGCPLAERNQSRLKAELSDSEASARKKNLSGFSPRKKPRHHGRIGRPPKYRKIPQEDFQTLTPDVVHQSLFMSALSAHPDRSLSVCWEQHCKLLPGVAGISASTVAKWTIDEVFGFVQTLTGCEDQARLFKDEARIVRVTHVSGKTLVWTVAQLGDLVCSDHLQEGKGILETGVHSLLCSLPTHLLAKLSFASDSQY
SMILES,Potency,"activity, negative = inhibition"
Cc1cccc(C(=O)NCC(=O)OCCOc2ccccc2Cl)c1,inactive,
Cn1cc(CCNC(=O)CC2C(=O)NCCN2Cc2cccc(Oc3ccccc3)c2)cn1 (configuration not stated),inactive,
COc1ccc(OCCCC(=O)Nc2nc(-c3ccccn3)cs2)cc1,"inconclusive: 11.2 µM [inhibitor, single point]",
CCOC(=O)CSc1nc(-c2ccccn2)ncc1OC,active: 22.4 µM,
COc1ccccc1C(c1nnnn1C(C)(C)C)N1CCCCCC1 (configuration not stated),inactive,
CCOc1ccc(C(C(=O)NC2CCCC2)N(CCCO)C(=O)c2ccc(-c3ccccc3)[nH]2)cc1 (configuration not stated),inactive,
COc1cc(/C=C2\SC(=O)N(CC(=O)Nc3ccc(C)cc3)C2=O)cc(Cl)c1OCC(=O)O,"inconclusive: 39.8 µM [inhibitor, single point]",
Cc1ccc(C)c(S(=O)(=O)NC(CCC(N)=O)C(=O)O)c1 (configuration not stated),"inconclusive: 0.708 µM [inhibitor, single point]",
COc1ccccc1OCC(=O)Nc1sc2c(c1C(N)=O)CCC2,"inconclusive: 31.6 µM [inhibitor, single point]",
CC(=O)Nc1ccc(S(=O)(=O)Nc2ccc(-c3ccc4nnc(C)n4n3)cc2)cc1,"inconclusive: 0.501 µM [inhibitor, partial curve, poor fit]",
CC1=NCC(C)c2c1[nH]c1ccccc21 (configuration not stated),inactive,
NC(=O)N/N=C/c1c(F)cccc1F,inactive,
Cc1c(NC(=O)COC(=O)c2cccn2C)c(=O)n(-c2ccccc2)n1C,inactive,
S=C(N/N=C/c1ccc(Cl)cc1)N1CCOCC1,"inconclusive: 28.2 µM [inhibitor, single point]",
CCc1ccc2[nH]c3nc(N/N=C/c4ccc(O)cc4O)nnc3c2c1,inactive,
CCn1cc(CNC(=O)c2cccc([N+](=O)[O-])c2)c(C)n1,"inconclusive: 6.31 µM [inhibitor, single point]",
COc1ccc(C=NNc2ccc(S(=O)(=O)Nc3ccccc3C(=O)O)cc2[N+](=O)[O-])c(OC)c1,"inconclusive: 3.16 µM [inhibitor, partial curve]",
COCCn1nnnc1C(c1ccccn1)N1CCN(c2cccc(C)c2C)CC1 (configuration not stated),inactive,
Cc1cccc(C(C#N)c2ccc(Cl)nn2)c1 (configuration not stated),"inconclusive: 10 µM [inhibitor, partial curve, poor fit]",
COc1ccc(C(=O)CSc2nnc(-c3ccco3)c(-c3ccco3)n2)cc1,"inconclusive: 31.6 µM [inhibitor, single point]",
O=C(COC(=O)c1ccc([N+](=O)[O-])s1)Nc1ccc(Cl)cn1,"inconclusive: 12.6 µM [inhibitor, partial curve]",
CC(Sc1nc2ccccc2s1)C(=O)c1c(N)n(C)c(=O)n(C)c1=O (configuration not stated),inactive,
Nc1cc(=O)[nH]c(SCC(=O)N2N=C(c3ccc(Cl)cc3)CC2c2ccco2)n1 (configuration not stated),inactive,
COc1cc(OC)c(C(=O)CCCN2CCCC2)c(OC)c1,,inconclusive: -92% [inhibitor]

SMILES,Potency,"activity, negative = inhibition"
O=C(N1CCN(Cc2ccccc2)CC1)C12CC3CC(CC(C3)C1)C2,"inconclusive: 5.62 µM [inhibitor, single point]",
c1ccc(N2CC3CCc4ccccc4C3=N2)cc1 (configuration not stated),inactive,
CCOC(=O)c1ccc(Nc2nc(C)nc3c2nnn3Cc2ccccc2)cc1,"inconclusive: 6.31 µM [inhibitor, single point]",
Cc1ccc(C(C#N)c2ccc3c(C(F)(F)F)cc(C(F)(F)F)nc3n2)cc1 (configuration not stated),"inconclusive: 39.8 µM [inhibitor, single point]",
CC1=NN(c2ccccc2)C(=O)/C1=C\C=C1\N(C)c2ccccc2C1(C)C,"inconclusive: 35.5 µM [inhibitor, partial curve]",
O=C(Nc1nc(-c2ccco2)c(-c2ccco2)s1)c1cnccn1,active: 3.55 µM,
CC1=NN(c2ccc(S(=O)(=O)O)cc2Cl)C(=O)C1,inactive,
CNC(=O)OCc1cccc(COC(=O)NC)n1,inactive,
Cc1ccc(C=Nc2ccc(N(C)C)cc2)o1,"inconclusive: 35.5 µM [inhibitor, single point]",
Cc1ccc(NCc2ccncc2)c(Br)c1,"inconclusive: 0.1 µM [inhibitor, full curve, poor fit]",
Cc1ccc(C(=O)N/C(=C\c2ccco2)C(=O)NCCc2c[nH]c3ccccc23)cc1,inactive,
COc1ccc(N2CCN(c3nc(NCCO)nc(N4CCOCC4)n3)CC2)cc1,inactive,
COc1ccc(-n2c(-c3ccc(Br)cc3)c[n+]3c2CCCCC3)cc1,inactive,
CC1(C)C(=O)Nc2ccccc2N1C(=O)COC(=O)c1cccc(O)c1,"inconclusive: 25.1 µM [inhibitor, single point]",
O=C(CCCSc1nc2sc3c(c2c(=O)[nH]1)CCC3)NCCCO,"inconclusive: 39.8 µM [inhibitor, single point]",
COc1ccccc1NC(=O)Cc1nc(CCl)cs1,inactive,
O=C(Cc1ccccc1)NC1c2ccccc2-c2ccccc21,inactive,
COc1ccc(N(CC(=O)NCCC2=CCCCC2)S(=O)(=O)c2ccc(C)cc2)cc1OC,"inconclusive: 20 µM [inhibitor, partial curve]",
O=C(CCC(=O)NCCCc1ccccc1)NCCCc1ccccc1,"inconclusive: 31.6 µM [inhibitor, partial curve]",
CCOC(=O)C1(Cc2ccc(OC)cc2)CCN(C(=O)c2ccc3[nH]ccc3c2)CC1,"inconclusive: 39.8 µM [inhibitor, single point]",
Cc1cc(C(=O)CN2C(=O)NC(Cc3c[nH]c4ccccc34)C2=O)c(C)n1C (configuration not stated),"inconclusive: 15.8 µM [inhibitor, partial curve]",
O=C(Nc1cccc(C(=O)N2CCOCC2)c1)c1ncn[nH]1,active: 28.2 µM,
CC[C@@]1(C(=O)OC)N[C@H](CN(C)S(=O)(=O)c2ccccc2)[C@@H]2C(=O)N(Cc3ccccc3)C(=O)[C@@H]21,"inconclusive: 35.5 µM [inhibitor, single point]",
COc1ccc(C(=O)NNC(=O)CSc2nc3c([nH]2)c(=O)n(C)c(=O)n3C)cc1,inactive,

SMILES,Potency,"activity, negative = inhibition"
O=C(CCNC(=O)c1ccc(Br)cc1)Nc1cccc(S(=O)(=O)N2CCCC2)c1,"inconclusive: 31.6 µM [inhibitor, single point]",
COc1cccc(-c2noc(Cn3nc(C)c([N+](=O)[O-])c3C)n2)c1,inactive,
CCOC(=O)N1CCN(Cc2cc(Cl)c3cccnc3c2O)CC1,inactive,
O=C(CSc1oc(-c2ccco2)nc1S(=O)(=O)c1ccccc1)NCC1CCCO1 (configuration not stated),"inconclusive: 10 µM [inhibitor, single point]",
O=C1N/C(=N\N=C\c2ccccn2)SC1Cc1cccc(SC(F)F)c1 (configuration not stated),inactive,
Cc1nn(Cc2ccc(Br)cc2)c(C)c1NC(=O)c1nn(C)cc1Cl,"inconclusive: 6.31 µM [inhibitor, single point]",
C#CCOCCOCCOCCNc1nc(N2CCN(C(=O)C(Cc3ccc(O)cc3)n3cc(C(N)C(C)CC)nn3)CC2)nc(N2CCN(C(=O)C(Cc3ccc(O)cc3)n3cc(C(N)C(C)CC)nn3)CC2)n1 (configuration not stated),"inconclusive: 15.8 µM [inhibitor, partial curve]",
CCCCCn1c(=S)[nH]c2ncccc2c1=O,inactive,
O=C(Cc1ccccc1)N1CCN=C1SCc1ccc([N+](=O)[O-])cc1,"inconclusive: 0.794 µM [inhibitor, single point]",
N#Cc1nc(COc2ccccc2F)oc1NCCCn1ccnc1,"inconclusive: 25.1 µM [inhibitor, partial curve]",
COc1ccc(C2(C(=O)NC(C)C)CCCC2)cc1OC,"inconclusive: 2.82 µM [inhibitor, single point]",
Nc1ccc(Nc2cc(O)c3ncccc3c2)cc1,active: 11.2 µM,
C#CCOCCOCCOCCNc1nc(N2CCN(C(=O)[C@H](CCC(=O)O)n3cc([C@@H](N)CO)nn3)CC2)nc(N2CCN(C(=O)[C@H](CCC(=O)O)n3cc([C@@H](N)CCSC)nn3)CC2)n1,"inconclusive: 20 µM [inhibitor, single point]",
CCc1ccccc1NC(=O)CSc1ccsc1[N+](=O)[O-],active: 28.2 µM,
c1ccc2oc(-c3[nH]ncc3CN3CCC(N4CCSCC4)CC3)cc2c1,"inconclusive: 5.01 µM [inhibitor, full curve, poor fit]",
Oc1ccc(N=Nc2ccc3c(c2)OCCO3)c2ncccc12,"inconclusive: 31.6 µM [inhibitor, single point]",
O=C(N/N=C/c1cccc2nccnc12)c1ccncc1,"inconclusive: 28.2 µM [inhibitor, partial curve]",
O=[N+]([O-])c1cc([N+](=O)[O-])c(N2CCOCC2)cc1NCc1ccccc1,"inconclusive: 39.8 µM [inhibitor, single point]",
Cc1ccc(N2C(=O)CCC2(C(N)=O)c2ccccc2)cc1 (configuration not stated),inactive,
Cn1c(NC(=O)/C=C/c2ccco2)cc(=O)n(C)c1=O,inactive,
CO[C@@]1(NC(=O)Cc2cccs2)C(=O)N2C(C(=O)O)=C(COC(N)=O)CS[C@@H]21,,inconclusive: -96.5% [inhibitor]
O=C1C(Cl)=C(N2CCN(c3ccccc3[N+](=O)[O-])CC2)C(=O)c2ccccc21,"inconclusive: 22.4 µM [inhibitor, partial curve]",
COc1ccc(N2CCN(C(=O)c3cccc(S(=O)(=O)N4CCCc5ccccc54)c3)CC2)cc1,"inconclusive: 25.1 µM [inhibitor, single point]",
COc1ccc(NC(=O)NC[C@@H]2CC[C@@H](Cc3ccc(-c4ccccc4)cc3)O2)cc1,"inconclusive: 31.6 µM [inhibitor, single point]",
